# Assay results as given in the supplement of paper PMC12217912.
# Some of the results follow. Sequences were assembled here from the parent chain. Values near 0.05 are background.
# B1: TEV protease; numbered along this chain (parent)
# chain: MGESLFKGPRDYNPISSSICHLTNESDGHTTSLYGIGFGPFIITNKHLFRRNNGTLVVQSLHGVFKVKDTTTLQQHLVDGRDMIIIRMPKDFPPFPQKLKFREPQREERICLVTTNFQTKSMSSMVSDTSCTFPSGDGIFWKHWIQTKDGQCGSPLVSTRDGFIVGIHSASNFTNTNNYFTSVPKNFMELLTNQEAQQWVSGWRLNADSVLWGGHKVFMVKPEEPFQPVKEATQL
# Variants of: B1
# Test: raw area under fraction-flipped curve 0-4 h after induction (AUC4h, not background-subtracted), DNA-recorder readout of cleavage of the substrate (dimensionless); higher = more cleavage of the substrate by the protease variant
# Conditions: temperature: 34 °C; time window: 0-4 h after rhamnose induction
# 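Note: Bxb1 expression induced with 0.2% (w/v) L-rhamnose at OD600 near 0.5, cultures sampled hourly, flipped fraction per protease–substrate barcode pair counted by paired-end Illumina sequencing.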
Variant,area with substrate ENLYDQS,area with substrate ENLYEQS,area with substrate ENLYGQS,area with substrate ENLYKQS,area with substrate ENLYLQS,area with substrate ENLYMQS,area with substrate ENLYNQS,area with substrate ENLYPQS,area with substrate ENLYQQS,area with substrate ENLYTQS,area with substrate ENLYHQS,area with substrate ENLYIQS,area with substrate ENLYRQS,area with substrate ENLYSQS,area with substrate ENLYWQS,area with substrate ENLYYQS,area with substrate ENLYVQS
MGESLFKGPRDYNPISSSICHLTNESRGHTTSLYGIGFGPFIITNKHLFRRNNGTLVVQSLHGVFKVKDTTTLQQHLVDGRDMIIIRMPKDFPPFPQKLKFREPQREERICLVTTNFQTKSMSSMVSDTSCTFPSGDGIFWKHWIQTKDGQCGSPLVSTRDGFIVGIHSASNFTNTNNYFTSVPKNFMELLTNQEAQQWVSGWRLNADSVLWGGHKVFMVKPEEPFQPVKEATQL [D27R],0.0582,0.0207,0.0558,0.0899,0.134,0.0944,0.0633,0.0542,0.0561,0.0445,–,–,–,–,–,–,–
MGESLFKGPRDYNPISSSICHLTNESDGHTTSLNGIGFGPFIITNKHLFRRNNGTLVVQSLHGVFKVKDTTTLQQHLVDGRDMIIIRMPKDFPPFPQKLKFREPQREERICLVTTNFQTKSMSSMVSDTSCTFPSGDGIFWKHWIQTKDGQCGSPLVSTRDGFIVGIHSASNFTNTNNYFTSVPKNFMELLTNQEAQQWVSGWRLNADSVLWGGHKVFMVKPEEPFQPVKEATQL [Y34N],0.0387,0.0764,–,0.0639,–,0.0788,0.0431,–,0.0636,–,0.0726,0.0696,–,–,–,–,–
MGESLFKGPRDYNPISSSICHLTNESDGHTTSLYGIGFGPFTITNKHLFRRNNGTLVVQSLHGVFKVKDTTTLQQHLVDGRDMIIIRMPKDFPPFPQKLKFREPQREERICLVTTNFQTKSMSSMVSDTSCTFPSGDGIFWKHWIQTKDGQCGSPLVSTRDGFIVGIHSASNFTNTNNYFTSVPKNFMELLTNQEAQQWVSGWRLNADSVLWGGHKVFMVKPEEPFQPVKEATQL [I42T],0.0652,–,0.058,0.0484,0.0518,0.0491,0.0559,0.0711,0.0512,–,–,0.0607,0.0491,0.0238,0.0527,0.0405,–
MGESLFKGPRDYNPISSSICHLTNESDGHTTSLYGIGFGPFIITNKHLSRRNNGTLVVQSLHGVFKVKDTTTLQQHLVDGRDMIIIRMPKDFPPFPQKLKFREPQREERICLVTTNFQTKSMSSMVSDTSCTFPSGDGIFWKHWIQTKDGQCGSPLVSTRDGFIVGIHSASNFTNTNNYFTSVPKNFMELLTNQEAQQWVSGWRLNADSVLWGGHKVFMVKPEEPFQPVKEATQL [F49S],0.0581,0.0561,0.0491,0.0568,–,0.0582,0.0542,0.0592,–,–,0.0561,0.0488,0.0506,–,0.0428,0.0505,0.0728
MGESLFKGPRDYNPISSSICHLTNESDGHTTSLYGIGFGPFIITNKHLFRGNNGTLVVQSLHGVFKVKDTTTLQQHLVDGRDMIIIRMPKDFPPFPQKLKFREPQREERICLVTTNFQTKSMSSMVSDTSCTFPSGDGIFWKHWIQTKDGQCGSPLVSTRDGFIVGIHSASNFTNTNNYFTSVPKNFMELLTNQEAQQWVSGWRLNADSVLWGGHKVFMVKPEEPFQPVKEATQL [R51G],0.0654,0.0668,–,–,–,0.096,–,0.0749,0.0726,0.088,–,–,0.0733,0.076,0.0958,–,0.114
MGESLFKGPRDYNPISSSICHLTNESDGHTTSLYGIGFGPFIITNKHLFRRNNFTLVVQSLHGVFKVKDTTTLQQHLVDGRDMIIIRMPKDFPPFPQKLKFREPQREERICLVTTNFQTKSMSSMVSDTSCTFPSGDGIFWKHWIQTKDGQCGSPLVSTRDGFIVGIHSASNFTNTNNYFTSVPKNFMELLTNQEAQQWVSGWRLNADSVLWGGHKVFMVKPEEPFQPVKEATQL [G54F],0.108,–,–,0.0221,–,–,0.0608,0.0875,–,–,–,0.0723,–,–,0.0588,0.0664,–
